Results reported in publication PMC4336329 (PLoS ONE, 2015).
The whole screen tested about 310,000 compounds, of which about 2,200 (0.71%) showed an effect of 50% or more. Effects have a minus sign here. This is one part of the list.

target: human ether-à-go-go-related gene (hERG) potassium channel (human, UniProt Q12809); test: primary screen, population patch clamp on CHO cells stably expressing hERG
Sequence (Q12809 whole entry, looked up): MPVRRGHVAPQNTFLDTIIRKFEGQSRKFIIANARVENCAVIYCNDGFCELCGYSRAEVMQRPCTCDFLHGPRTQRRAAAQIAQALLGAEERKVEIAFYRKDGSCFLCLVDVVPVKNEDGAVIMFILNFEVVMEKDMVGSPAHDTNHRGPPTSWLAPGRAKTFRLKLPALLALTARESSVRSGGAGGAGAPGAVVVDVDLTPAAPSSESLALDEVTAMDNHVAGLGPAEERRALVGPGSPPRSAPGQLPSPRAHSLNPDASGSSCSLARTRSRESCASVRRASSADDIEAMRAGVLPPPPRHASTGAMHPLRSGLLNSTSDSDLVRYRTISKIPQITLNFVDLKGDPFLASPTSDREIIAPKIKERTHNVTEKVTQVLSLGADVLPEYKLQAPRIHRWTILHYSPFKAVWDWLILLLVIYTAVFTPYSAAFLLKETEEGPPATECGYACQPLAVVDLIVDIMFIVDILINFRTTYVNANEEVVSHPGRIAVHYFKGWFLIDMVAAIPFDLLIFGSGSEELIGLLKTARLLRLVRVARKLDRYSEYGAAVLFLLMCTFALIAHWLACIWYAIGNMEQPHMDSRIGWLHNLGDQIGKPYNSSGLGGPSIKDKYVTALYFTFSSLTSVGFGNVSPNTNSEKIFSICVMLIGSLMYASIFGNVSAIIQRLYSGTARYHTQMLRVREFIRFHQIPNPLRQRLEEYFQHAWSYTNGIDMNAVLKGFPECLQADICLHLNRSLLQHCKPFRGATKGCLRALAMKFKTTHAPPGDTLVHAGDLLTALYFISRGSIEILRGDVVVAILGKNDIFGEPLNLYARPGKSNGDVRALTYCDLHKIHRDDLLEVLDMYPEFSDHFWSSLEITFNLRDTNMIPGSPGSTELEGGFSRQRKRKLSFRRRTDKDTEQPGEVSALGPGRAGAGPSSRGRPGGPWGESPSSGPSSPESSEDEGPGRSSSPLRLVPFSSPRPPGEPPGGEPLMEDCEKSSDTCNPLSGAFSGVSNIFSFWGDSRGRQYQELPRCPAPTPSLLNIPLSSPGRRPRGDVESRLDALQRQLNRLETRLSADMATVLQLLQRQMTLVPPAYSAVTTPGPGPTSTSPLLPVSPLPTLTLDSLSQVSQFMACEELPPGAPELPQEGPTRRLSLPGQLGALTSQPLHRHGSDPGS

SMILES | hERG current change (%, negative = inhibition) at 1uM [%]
O=C(NC1CCCN(Cc2ccc(Cl)cc2)C1)c1c(F)cccc1F (stereo not drawn) | 17.1
COCCNCCOc1ccc(C(C)(C)c2ccccc2)cc1.O=C(O)C(=O)O | -2.39
OCCC1CN(Cc2nc3ccc(F)cc3[nH]2)CCN1C1CCCC1 (stereo not drawn) | 6.57
Cc1cccnc1NC(=O)CSc1nnc(COc2ccc(C(C)C)cc2)n1C | 6.31
CC(C)(C)c1ccc(C(=O)Nc2ccccc2NC(=O)c2ccco2)cc1 | 6.52
c1ccc(OCCCc2nc(-c3ccccn3)no2)cc1 | 10.4
O=C(c1cc(Cl)nc2ccccc12)N1CCCCC1 | 7.78
CN(CCOc1ccccc1)C(=O)C1CCN(C(=O)c2ccc(F)cc2)CC1 | 6.11
Cc1ccc(-c2csc(=S)[nH]2)cc1 | 12.3
CC1CCCN(C(=S)NCCc2ccccc2)C1 (stereo not drawn) | 10.5
CCOC(=O)c1sc2nc(CSc3ccccc3)[nH]c(=O)c2c1C | 12.1
Cc1cccc(N2CCc3c2nc2ccc(Br)cc2c3N)c1.Cl | 7.1
Cc1cc(OCC(O)CN2CCN(CCO)CC2)ccc1C(C)C.Cl (stereo not drawn) | 7.73
COc1ccc(NC(=O)C2CCCN2C(=O)NCc2ccccc2)cc1OC (stereo not drawn) | 19.3
COc1ccc(OCC(=O)N2CCN(C(=O)c3ccccc3)CC2)cc1 | -3.83
COC(=O)NC1(C(F)(F)F)C(=O)NC(C)=C1C(=O)OC (stereo not drawn) | 11.4
O=Cc1c(SCCO)nc2ccccn2c1=O | 0.111
COc1ccc(NC(C)=O)c2nc(C)c(C)nc12 | 9.37
Nc1nc(CN2CCN(c3ccccn3)CC2)nc(Nc2ccc(F)cc2)n1 | -49
Nc1nonc1-n1nnc(C(=O)N/N=C/c2ccccc2Cl)c1-c1ccc2c(c1)OCO2 | 1.92
CC(=O)Nc1ccc2nc(NC(=O)c3ccc([N+](=O)[O-])s3)sc2c1 | 19.5
COC(=O)C1=C(C)N(c2ccc(OC)c(OC)c2)C(=O)/C1=C\c1ccco1 | 12.5
COc1cccc(NC(=S)N(Cc2ccc(Cl)cc2)Cc2ccc(C(=O)O)cc2)c1 | 15

SMILES | hERG current change (%, negative = inhibition) at 1uM [%]
CSc1nc2ccc(NC(=O)NC(=O)c3c(F)cccc3F)cc2s1 | 8.52
Cc1cc(C)c(S(=O)(=O)N2CCN(C(=O)CCOc3ccccc3C)CC2)c(C)c1 | 0.271
CC1(C)CC2CC(C)(CN2C(=O)c2cccs2)C1 (stereo not drawn) | 12.5
CCCN1CCC(=O)N([C@H](CSc2ccc(OC)cc2)c2ccccc2)CC1 | -81.7
Cc1ccccc1CS(=O)(=O)Cc1ccc(C(=O)NC2CCCC2)o1 | 12.4
O=C(/C=C/c1ccco1)N1CCN(c2ncccn2)CC1 | 8.29
O=S(=O)(NCC1CCN(Cc2ccccc2)CC1)c1ccccc1C(F)(F)F | 3.27
CCCNC(=O)Cn1c(=O)oc2cc(S(=O)(=O)N3CCCC3)ccc21 | 16.1
Cc1cc(C)c(C#N)c(SCc2cn3c(C)cccc3n2)n1 | 12.5
Cn1c(CCNC(=O)c2cccs2)nnc1SCC(=O)Nc1nc(-c2ccccc2)cs1 | -1.1
CC(=O)c1ccc(C(=O)N2CCc3c([nH]c4ccccc34)C2c2cccc(C)n2)s1 (stereo not drawn) | 0.389
NS(=O)(=O)c1ccc(CCNC(=O)CCCCCn2c(=S)[nH]c3ccc(Br)cc3c2=O)cc1 | 5.08
CCCCOc1ccc(OCCSc2nc3ccccc3n2CC(=O)O)cc1 | 7.96
CCOc1ccc(C(=O)C[n+]2ccccc2C)cc1.[Cl-] | 1.44
CCCNS(=O)(=O)c1ccc(NC(=O)c2cccnc2)cc1 | 2.58
CC(C)(C)NC(=O)c1cc(-c2ccc3c(c2)OCO3)nc2ccccc12 | 11.9
COCCSc1nc2c(c(=O)[nH]c(=O)n2C)n1Cc1cccc(C)c1 | -5.69
Cc1occc1-c1nnc(SCC(=O)N(C)C)o1 | 1.48
COc1ccc(C(=O)N/N=C/c2ccc3cccc(OCc4ccccc4)c3n2)cc1 | 19.3
O=C(NNC(=O)C1CCN(Cc2ccccc2)CC1)c1cccs1 | 10.4
Cc1ccc(SCC(=O)Nc2ccc(N3CCOCC3)cc2)cc1 | 15.7
CCOC(=O)C1=C(C)NC(SCC(=O)O)=NC1c1ccccc1 (stereo not drawn) | 4.73
